Measured values from PubChem BioAssay AID1460 (National Center for Advancing Translational Sciences (NCATS), 2008).
Out of some 270,000 compounds screened, about 5,800 (2.1%) were called active. The inconclusive results got no clear call from the source; some entries with a clear call stand among them for comparison. Calls come from the whole dose curve; as a rule, active = well fitted inhibition curve with a large enough effect; inconclusive = small, poorly fitted or top-dose-only effect; inactive = flat fitted curve, though single readings scatter. Potencies beside an inconclusive call are fits to weak or partial responses and may not hold up.

The compounds below were run against Microtubule-associated protein tau (Homo sapiens) (UniProt P10636) (assay: qHTS for Inhibitors of Tau Fibril Formation, Thioflavin T Binding). Conditions: recombinant tau K18 P301L, heparin-induced fibrillization, ThT fluorescence; series mostly up to 57.4 µM; activity, negative = inhibition: at the top concentration.
Procedure, shortened: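 ThT emission at 510 nm, taken 1 hr after adding 30 uM dye, quantifies aggregates formed when 20 uM heparin acts on human tau K18 P301L for 6 hr at 37 C.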
% is set by controls: 0 for no effect and ±100 for the full control effect; potency is the fitted concentration of half-maximal effect; tags give direction and shape of the fitted curve.
Note: nearly all actives have a fitted effect of over 55% in size.

UniProt P10636, sequence (P10636 whole entry, looked up): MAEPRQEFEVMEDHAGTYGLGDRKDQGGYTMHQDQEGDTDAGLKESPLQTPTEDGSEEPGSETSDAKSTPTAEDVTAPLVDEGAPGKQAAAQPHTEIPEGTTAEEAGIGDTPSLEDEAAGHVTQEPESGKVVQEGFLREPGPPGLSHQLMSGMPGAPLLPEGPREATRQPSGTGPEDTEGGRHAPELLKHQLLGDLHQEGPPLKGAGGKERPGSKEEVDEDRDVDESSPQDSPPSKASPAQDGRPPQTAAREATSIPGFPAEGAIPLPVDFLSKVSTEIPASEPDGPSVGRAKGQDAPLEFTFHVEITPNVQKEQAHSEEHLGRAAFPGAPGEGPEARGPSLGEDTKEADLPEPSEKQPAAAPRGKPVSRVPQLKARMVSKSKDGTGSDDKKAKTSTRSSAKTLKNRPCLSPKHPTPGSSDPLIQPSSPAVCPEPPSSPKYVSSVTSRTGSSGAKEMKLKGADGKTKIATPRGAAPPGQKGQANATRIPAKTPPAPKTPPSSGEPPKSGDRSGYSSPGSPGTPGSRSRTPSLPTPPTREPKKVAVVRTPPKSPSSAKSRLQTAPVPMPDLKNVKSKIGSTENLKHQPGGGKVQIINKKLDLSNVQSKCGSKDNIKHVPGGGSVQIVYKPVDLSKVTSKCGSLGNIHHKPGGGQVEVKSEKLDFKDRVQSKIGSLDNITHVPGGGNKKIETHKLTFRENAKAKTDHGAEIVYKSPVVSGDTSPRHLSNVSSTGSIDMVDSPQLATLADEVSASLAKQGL

SMILES | activity, negative = inhibition | Potency
Nc1nnc(N)c2ccccc12 | inactive: -6.98% | 
O=C(C1=C[C@H](c2ccc(Br)cc2)C[C@H](OCCCCO)O1)N1CCOCC1 |  | inconclusive: 0.794 µM [inhibitor, single point]
COC(=O)c1ccccc1NC(=O)N1c2ccccc2CC1C (stereo not drawn) |  | inconclusive: 20 µM [inhibitor, single point]
COCCN=C1Sc2nc3ccc(C)cc3cc2CN1Cc1ccco1 |  | inconclusive: 22.4 µM [inhibitor, partial curve]
COc1cccc(N(CC(=O)Nc2ccc3c(c2)OCO3)S(=O)(=O)c2ccccc2)c1 |  | inconclusive: 25.1 µM [inhibitor, partial curve]
O=C(NCc1cccnc1)/C(=C/c1ccc(-c2cccc(Cl)c2)o1)S(=O)(=O)c1ccccc1 |  | inconclusive: 28.2 µM [inhibitor, single point]
CCc1cccc(C)c1NC(=O)Cn1c(=O)cc(C)c2c(C)nn(-c3cccc(F)c3)c21 | inactive: -0.107% | 
CCOC(=O)C(=NCCCN(C)C)NNc1ccc(Br)cc1 |  | inconclusive: 28.2 µM [inhibitor, partial curve]
Cc1cc(C)nc(SCc2ccc(C(=O)N/N=C/c3cccc(O)c3O)cc2)n1 |  | inconclusive: 3.98 µM [inhibitor, partial curve]
Cc1ccc(-c2ccc(C(=O)Nc3ccccc3)o2)c2ccccc12 |  | inconclusive: 7.94 µM [inhibitor, partial curve]
Cc1cccc(CCNC(=O)CCc2c(C)nc3c4c(C)cc(C)nc4nn3c2C)c1 |  | inconclusive: 25.1 µM [inhibitor, partial curve]
CCCc1c(NC(=O)Nc2ccc(F)cc2)cnn1-c1ccc(Cl)cc1 |  | inconclusive: 44.7 µM [inhibitor, single point]
CCN1CCN(CCNC(=O)c2ccc(/C=C3\Sc4ccccc4N(Cc4ccccc4F)C3=O)cc2)CC1 |  | inconclusive: 25.1 µM [inhibitor, single point]
Cc1cccc(OCCCSc2nc3ccc(C)cc3[nH]2)c1 |  | inconclusive: 0.251 µM [inhibitor, full curve, poor fit]
COc1ccc(C(=O)N2CCN(Cc3cc(=O)n4nc(-c5ccccc5C)sc4n3)CC2)cc1OC | inactive: -14.1% | 
CC(=O)Nc1ccc(-c2cc(C(=O)O)c3c(-c4ccccc4)[nH]nc3n2)cc1 | inactive: 0.18% | 
COc1ccc(/C=C(\NC(=O)/C=C/c2ccco2)C(=O)NCCc2nc3ccccc3[nH]2)cc1 |  | inconclusive: 39.8 µM [inhibitor, single point]
CN(c1ccc(O)cc1)c1nc(-c2ccccc2)cs1 |  | inconclusive: 14.1 µM [inhibitor, partial curve]
CNCCC=C1c2ccccc2CCc2ccccc21 |  | inconclusive: 10 µM [inhibitor, partial curve]
CC1CCCC(C)N1C(=O)COC(=O)c1cc(Br)ccc1Cl (stereo not drawn) | inactive: -4.27% | 
O=c1oc2ccccc2cc1-c1nc2c(s1)CCc1ccccc1-2 | inactive: 6.98% | 
CCCC1=Nc2cc(C(=O)NC3CCCC3)ccc2Sc2ccc(C)cc21 | inactive: -5.81% | 

SMILES | activity, negative = inhibition | Potency
COc1cccc(-c2nc(NCC3CCCO3)c3ccccc3n2)c1O (stereo not drawn) |  | inconclusive: 31.6 µM [inhibitor, partial curve]
c1csc(CCNc2ncnc3sc4c(c23)CCC4)c1 |  | inconclusive: 44.7 µM [inhibitor, single point]
COc1ccc(NC(=O)c2sc3nc[nH]c(=O)c3c2C)cc1Cl |  | inconclusive: 2.82 µM [inhibitor, full curve, poor fit]
COc1ccc(C(NC(=O)/C=C/c2ccco2)c2ccc(OC)cc2)cc1 | inactive: -15.7% | 
Cn1c(=O)n(-c2ccc3c(c2)OCO3)c2nc(-c3ccccc3)nc(C(N)=O)c21 | inactive: 4.59% | 
CC[C@]1(O)CC2CN(CCc3c([nH]c4ccccc34)[C@@](C(=O)OC)(c3cc4c(cc3OC)N(C=O)[C@H]3[C@@](O)(C(=O)OC)[C@H](OC(C)=O)[C@]5(CC)C=CCN6CC[C@]43[C@@H]65)C2)C1 (stereo partly drawn) |  | inconclusive: 35.5 µM [inhibitor, single point]
O=c1/c(=C/c2ccc(O)cc2)sc2nc3cc(Br)cnc3n12 |  | inconclusive: 5.01 µM [inhibitor, full curve]
Cc1occc1-c1nnc(SCC(=O)Nc2nc3ccccc3s2)o1 |  | inconclusive: 2.51 µM [inhibitor, full curve]
CCN(CC)CC(C)CNC(=O)c1cc(-c2ccc(Br)s2)nc2ccccc12 (stereo not drawn) |  | inconclusive: 20 µM [inhibitor, partial curve]
Cc1cccc(NC2=C(NCCO)C(=O)c3ccccc3C2=O)c1 |  | active: 25.1 µM
Cc1ccc(C(=O)NC(=S)NNC(=O)COc2ccccc2C)cc1 |  | inconclusive: 10 µM [inhibitor, partial curve]
CCc1ccccc1NC(=O)Cn1nnc(C(=O)NCc2ccccc2Cl)c1N | inactive: -6.04% | 
Cc1ccc(C(=O)C(NC(=O)c2ccco2)Nc2sc3c(c2C(N)=O)CCCC3)cc1 (stereo not drawn) |  | active: 28.2 µM
COc1ccc(Nc2nc(=O)c3cc([N+](=O)[O-])ccc3s2)cc1 |  | inconclusive: 1.58 µM [inhibitor, full curve]
Cc1cccc(NC(=O)CN2C(=O)S/C(=C\c3ccc(O)c([N+](=O)[O-])c3)C2=O)c1 |  | active: 6.31 µM
O=C(C1=C[C@@H]2[C@H]3C(=O)N(c4ccccc4Cl)C(=O)[C@H]3[C@@H](C(=O)c3ccc(Cl)cc3)N2C=C1)c1ccccc1 |  | active: 22.4 µM
CC(=O)N1CCN(c2nc(CC(C)C)c3c(c2C#N)CCC3)CC1 | inactive: -10.4% | 
O=C(/C=C/c1ccc(O)c(O)c1)NC(=O)c1ccccc1O |  | inconclusive: 12.6 µM [inhibitor, partial curve]
CC1(C)Cn2c(nnc2-c2ccccc2)S1 | inactive: 0.0183% | 
NC(=O)CC[C@@H]1NC(=O)[C@H](CO)NC(=O)c2cc([N+](=O)[O-])cc(I)c2NCCC[C@@H](C(N)=O)NC(=O)[C@H](Cc2ccc(O)cc2)NC1=O |  | inconclusive: 17.8 µM [inhibitor, partial curve]
CCN(CC)c1ccc(N=Cc2ccccc2[N+](=O)[O-])cc1 |  | active: 14.1 µM
